This is one part of the list. Each Rep nickase domain was tested in vitro on the same pool of single strands for 1 h at 37 °C with 3 µM enzyme; only the middle of the 90-letter strands is printed. The score is log2 (uncut reads / reads without enzyme); more negative means more cut, near 0 not cut, and no call is made. Reads are scaled to the total; values above 0 arise when much of the pool is cut.
Tested on: T1, Rep nickase domain of tomato golden mosaic virus
T1 sequence (Rep 1-124, printed without the tag): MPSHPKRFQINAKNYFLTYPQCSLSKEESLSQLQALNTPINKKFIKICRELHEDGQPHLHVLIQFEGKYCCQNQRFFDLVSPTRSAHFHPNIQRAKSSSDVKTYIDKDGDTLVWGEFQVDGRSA
Experiment: uncleaved DNA left, log2 of reads against the no-enzyme library (log2 ratio); higher = less cleavage (more negative = more Rep cleavage of the k-mer); sequences stand for … in CTCGTCCG…ACCGGAGA
Method: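 A pool of 90-nt single-stranded DNAs with seven random bases just before the constant AC of the nick site (name = the seven bases) was cut by 3 µM recombinant His6-SUMO-tagged Rep nickase domain (300 nM DNA, 50 mM HEPES pH 8.0, 50 mM NaCl, 1 mM MnCl2, 1 h, 37 °C, three replicates). Uncut DNA was amplified and sequenced.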

| Sequence | uncleaved DNA left (log2) |
| --- | --- |
| GTGTCCA | 0.114 |
| CGACCGC | -0.11 |
| CGTCTCT | -0.146 |
| CAGTTGT | -0.12 |
| CTCCCTC | -0.167 |
| TATGTTT | -0.213 |
| GATGACC | 0.102 |
| ACGTAAC | 0.002 |
| GTGTCCG | 0.0281 |
| TGGGATG | 0.114 |
| CACTTAG | -0.0981 |
| GCGCTGG | -0.0222 |
| GCATTTT | -0.13 |
| TAGGAAG | 0.123 |
| TCCGCCC | -0.294 |
| CGACCTA | -0.248 |
| AGATCAA | 0.00973 |
| TCAACCT | -0.145 |
| CTTTGGC | -0.23 |
| GTGATCA | 0.0434 |

| Sequence | uncleaved DNA left (log2) |
| --- | --- |
| TATGAAC | 0.0375 |
| TATTTGC | -0.0204 |
| ACCAAGA | 0.0339 |
| TTATTGT | -0.244 |
| CTTATGC | -0.0819 |
| TAATGGT | -3.78 |
| CTGCCTT | -0.0336 |
| CGCGCGC | -0.167 |
| ATCCGGC | -0.192 |
| GCGGGTC | 0.0808 |
| GAGCCGA | 0.085 |
| TTTCCAT | -0.191 |
| CTCAGTC | -0.0667 |
| ATTGACG | -0.132 |
| TCGCCCA | 0.0966 |
| TTGGTCC | -0.11 |
| CATGCTG | -0.0167 |
| GAATGGC | 0.000711 |
| GAATTGG | -0.0439 |
| TACAAAG | -0.0266 |
